First the molecules themselves.
T1: RBFOX1 RRM (Homo sapiens, UniProt Q9NWB1 109-208)
T1 sequence: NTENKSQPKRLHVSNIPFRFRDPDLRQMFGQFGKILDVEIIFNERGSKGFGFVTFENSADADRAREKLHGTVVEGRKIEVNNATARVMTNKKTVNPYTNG

B1: AUUGCUC (DNA:RNA)
RNA: GGGAGACCGGAAUUCAGAUUGUCCAUUGCUCUUAAAUCCCGUCGUAGCCACCA
DNA 1: CAATCTGAATTCCGGTCTCCC
DNA 2: TGGTGGCTACGACGGGATT
B2: AAAAGAU (DNA:RNA)
RNA: B1 RNA with U26A, U27A, G28A, C29G, U30A, C31U
DNA 1: CAATCTGAATTCCGGTCTCCC
DNA 2: TGGTGGCTACGACGGGATT
B3: AACAAAU (DNA:RNA)
RNA: B1 RNA with U26A, U27C, G28A, C29A, U30A, C31U
DNA 1: CAATCTGAATTCCGGTCTCCC
DNA 2: TGGTGGCTACGACGGGATT
B4: CCGGAAG (DNA:RNA)
RNA: B1 RNA with A25C, U26C, U27G, C29A, U30A, C31G
DNA 1: CAATCTGAATTCCGGTCTCCC
DNA 2: TGGTGGCTACGACGGGATT
B5: UCUGGUG (DNA:RNA)
RNA: B1 RNA with A25U, U26C, C29G, C31G
DNA 1: CAATCTGAATTCCGGTCTCCC
DNA 2: TGGTGGCTACGACGGGATT
B6: GGGCGUA (DNA:RNA)
RNA: B1 RNA with A25G, U26G, U27G, G28C, C29G, C31A
DNA 1: CAATCTGAATTCCGGTCTCCC
DNA 2: TGGTGGCTACGACGGGATT
B7: GGUCGAU (DNA:RNA)
RNA: B1 RNA with A25G, U26G, G28C, C29G, U30A, C31U
DNA 1: CAATCTGAATTCCGGTCTCCC
DNA 2: TGGTGGCTACGACGGGATT
B8: CGCGGGA (DNA:RNA)
RNA: B1 RNA with A25C, U26G, U27C, C29G, U30G, C31A
DNA 1: CAATCTGAATTCCGGTCTCCC
DNA 2: TGGTGGCTACGACGGGATT
B9: UUGAGAA (DNA:RNA)
RNA: B1 RNA with A25U, U27G, G28A, C29G, U30A, C31A
DNA 1: CAATCTGAATTCCGGTCTCCC
DNA 2: TGGTGGCTACGACGGGATT
B10: AGUUAAA (DNA:RNA)
RNA: B1 RNA with U26G, G28U, C29A, U30A, C31A
DNA 1: CAATCTGAATTCCGGTCTCCC
DNA 2: TGGTGGCTACGACGGGATT
B11: UUCUGCA (DNA:RNA)
RNA: B1 RNA with A25U, U27C, G28U, C29G, U30C, C31A
DNA 1: CAATCTGAATTCCGGTCTCCC
DNA 2: TGGTGGCTACGACGGGATT
B12: AUGGAAA (DNA:RNA)
RNA: B1 RNA with U27G, C29A, U30A, C31A
DNA 1: CAATCTGAATTCCGGTCTCCC
DNA 2: TGGTGGCTACGACGGGATT
B13: AAAUGGA (DNA:RNA)
RNA: B1 RNA with U26A, U27A, G28U, C29G, U30G, C31A
DNA 1: CAATCTGAATTCCGGTCTCCC
DNA 2: TGGTGGCTACGACGGGATT
B14: GCUAACU (DNA:RNA)
RNA: B1 RNA with A25G, U26C, G28A, C29A, U30C, C31U
DNA 1: CAATCTGAATTCCGGTCTCCC
DNA 2: TGGTGGCTACGACGGGATT
B15: UCCUCAA (DNA:RNA)
RNA: B1 RNA with A25U, U26C, U27C, G28U, U30A, C31A
DNA 1: CAATCTGAATTCCGGTCTCCC
DNA 2: TGGTGGCTACGACGGGATT
B16: AAUCUAU (DNA:RNA)
RNA: B1 RNA with U26A, G28C, C29U, U30A, C31U
DNA 1: CAATCTGAATTCCGGTCTCCC
DNA 2: TGGTGGCTACGACGGGATT
B17: CUGCUUA (DNA:RNA)
RNA: B1 RNA with A25C, U27G, G28C, C29U, C31A
DNA 1: CAATCTGAATTCCGGTCTCCC
DNA 2: TGGTGGCTACGACGGGATT
B18: GUCGUUU (DNA:RNA)
RNA: B1 RNA with A25G, U27C, C29U, C31U
DNA 1: CAATCTGAATTCCGGTCTCCC
DNA 2: TGGTGGCTACGACGGGATT
B19: UGAUGUC (DNA:RNA)
RNA: B1 RNA with A25U, U26G, U27A, G28U, C29G
DNA 1: CAATCTGAATTCCGGTCTCCC
DNA 2: TGGTGGCTACGACGGGATT
B20: GAAUAUG (DNA:RNA)
RNA: B1 RNA with A25G, U26A, U27A, G28U, C29A, C31G
DNA 1: CAATCTGAATTCCGGTCTCCC
DNA 2: TGGTGGCTACGACGGGATT
B21: AAGUCUA (DNA:RNA)
RNA: B1 RNA with U26A, U27G, G28U, C31A
DNA 1: CAATCTGAATTCCGGTCTCCC
DNA 2: TGGTGGCTACGACGGGATT
B22: GAAGUAG (DNA:RNA)
RNA: B1 RNA with A25G, U26A, U27A, C29U, U30A, C31G
DNA 1: CAATCTGAATTCCGGTCTCCC
DNA 2: TGGTGGCTACGACGGGATT
B23: GGGGGCC (DNA:RNA)
RNA: B1 RNA with A25G, U26G, U27G, C29G, U30C
DNA 1: CAATCTGAATTCCGGTCTCCC
DNA 2: TGGTGGCTACGACGGGATT
B24: GCAUCAC (DNA:RNA)
RNA: B1 RNA with A25G, U26C, U27A, G28U, U30A
DNA 1: CAATCTGAATTCCGGTCTCCC
DNA 2: TGGTGGCTACGACGGGATT
B25: CAUACCU (DNA:RNA)
RNA: B1 RNA with A25C, U26A, G28A, U30C, C31U
DNA 1: CAATCTGAATTCCGGTCTCCC
DNA 2: TGGTGGCTACGACGGGATT
B26: AUCUGUU (DNA:RNA)
RNA: B1 RNA with U27C, G28U, C29G, C31U
DNA 1: CAATCTGAATTCCGGTCTCCC
DNA 2: TGGTGGCTACGACGGGATT
B27: AGGAAGG (DNA:RNA)
RNA: B1 RNA with U26G, U27G, G28A, C29A, U30G, C31G
DNA 1: CAATCTGAATTCCGGTCTCCC
DNA 2: TGGTGGCTACGACGGGATT
B28: CGCUCAU (DNA:RNA)
RNA: B1 RNA with A25C, U26G, U27C, G28U, U30A, C31U
DNA 1: CAATCTGAATTCCGGTCTCCC
DNA 2: TGGTGGCTACGACGGGATT
B29: UAUUGUA (DNA:RNA)
RNA: B1 RNA with A25U, U26A, G28U, C29G, C31A
DNA 1: CAATCTGAATTCCGGTCTCCC
DNA 2: TGGTGGCTACGACGGGATT
B30: AUGCACG (DNA:RNA)
RNA: B1 RNA with U27G, G28C, C29A, U30C, C31G
DNA 1: CAATCTGAATTCCGGTCTCCC
DNA 2: TGGTGGCTACGACGGGATT
B31: UUAAUAC (DNA:RNA)
RNA: B1 RNA with A25U, U27A, G28A, C29U, U30A
DNA 1: CAATCTGAATTCCGGTCTCCC
DNA 2: TGGTGGCTACGACGGGATT

Residue numbers refer to the chain shown, from its start. This is one part of the list.

The target in this experiment is T1, RBFOX1 RRM. In words: EMSA; HiTS-Eq, 1 nM pool, 10 min; buffer printed only for the single-RNA assays: 10 mM Tris pH 7.5, 150 mM NaCl, 3.4 mM EDTA, 0.001% NP-40, 30 C. Conditions: tags: His6 N-terminal (pET28a); label: 5' 32P. The method in brief: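 Purified wild-type or mutant RbFox RRM at increasing concentrations was equilibrated with 1 nM of 5′-radiolabelled RNA carrying 7 randomized nucleotides for 10 min in 50 µL. Unbound RNA was separated by 8% native PAGE and sequenced. Relative association constants came from read-count changes of each RNA species compared with the control reaction, normalised to the cognate motif.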
In general terms: A gel shift assay detects complexes by their altered migration in electrophoresis.
As for B1, the binding signal is 0.013 KA relative to UGCAUGU.

With B2, the binding signal is 0.00221 KA relative to UGCAUGU.

Regarding B3, the binding signal was 0.00103 KA relative to UGCAUGU.

As for B4, the binding signal is 0.0111 KA relative to UGCAUGU.

For the molecule B5, the binding signal was 0.0283 KA relative to UGCAUGU.

For B6, the binding signal was 0.0139 KA relative to UGCAUGU.

On to B7, for which the binding signal was 0.00733 KA relative to UGCAUGU.

With B8, the binding signal is 0.00656 KA relative to UGCAUGU.

For B9, the binding signal is 0.0148 KA relative to UGCAUGU.

With B10, the binding signal is 0.00213 KA relative to UGCAUGU.

With B11, the binding signal was 0.016 KA relative to UGCAUGU.

B12: the binding signal was 0.00765 KA relative to UGCAUGU.

Consider B13, for which the binding signal was 0.00168 KA relative to UGCAUGU.

Regarding B14, the binding signal was 0.00934 KA relative to UGCAUGU.

B15: the binding signal is 0.00842 KA relative to UGCAUGU.

For the molecule B16, the binding signal is 0.00173 KA relative to UGCAUGU.

Take B17: the binding signal was 0.0127 KA relative to UGCAUGU.

On to B18, for which the binding signal is 0.0204 KA relative to UGCAUGU.

In the case of B19, the binding signal was 0.0268 KA relative to UGCAUGU.

B20: the binding signal was 0.00979 KA relative to UGCAUGU.

As for B21, the binding signal is 0.00239 KA relative to UGCAUGU.

For the molecule B22, the binding signal is 0.0103 KA relative to UGCAUGU.

As to B23, the binding signal was 0.0256 KA relative to UGCAUGU.

Consider B24, for which the binding signal was 0.00897 KA relative to UGCAUGU.

Turning to B25, the binding signal is 0.000336 KA relative to UGCAUGU.

As to B26, the binding signal is 0.00751 KA relative to UGCAUGU.

Turning to B27, the binding signal was 0.0189 KA relative to UGCAUGU.

B28: the binding signal is 0.00669 KA relative to UGCAUGU.

For the molecule B29, the binding signal was 0.014 KA relative to UGCAUGU.

B30: the binding signal is 0.361 KA relative to UGCAUGU.

B31: the binding signal was 0.00148 KA relative to UGCAUGU.

(Values after paper PMC9911399, “Two distinct binding modes provide the RNA-binding protein RbFox with extraordinary sequence specificity”.)
